Assay results: patent publication US11286261B2, “Fourth-generation EGFR tyrosine kinase inhibitor” (NAGASAKI UNIVERSITY, priority 2017, dated 2022)

Key:
[1] = system: EGFR (L858R/T790M) gene-transfected BaF3 cell; test: proliferation inhibitory activity using EGFR (L858R/T790M) gene-transfected BaF3 cell (MTT); format: cell-based; details: Mus musculus, 96 h, +IL-3, 4 days
[2] = system: EGFR (del exon19/T790M) gene-transfected BaF3 cell; test: proliferation inhibitory activity using EGFR (del exon19/T790M) gene-transfected BaF3 cell (MTT); format: cell-based; details: Mus musculus, 96 h, +IL-3, 4 days
[3] = system: EGFR (T790M/L858R/C797S) gene-transfected BaF3 cell; test: proliferation inhibitory activity using EGFR (T790M/L858R/C797S) gene-transfected BaF3 cell (MTT); format: cell-based; details: Mus musculus, 96 h, +IL-3, 4 days
[4] = system: wild-type EGFR gene-introduced BaF3 cell; test: proliferation inhibitory activity of compound 26d in wild-type EGFR gene-introduced BaF3 cell (MTT); format: cell-based; details: Mus musculus, 96 h, BaF3 EGFR WT, +IL-3 10 ng/mL, 4 days
Method: The selectivity of compound 26d for EGFR with an activating mutation was examined using BaF3 cells expressing wild-type EGFR without an activating mutation. […] Two days later, 1 μg/mL puromycin was added and resistant cells were selected. The cells were washed twice with PBS, seeded in a 96 well microplate (Thermo Fisher Scientific, Inc.) at 30000 cells/well, 10 ng/mL EGF or IL-3 and various concentrations of compound 26d were added and the cells were cultured in 150 μL of the medium for 4 days. 15 μL of 5 mg/mL MTT (thiazolyl blue tetrazolium bromide) solution was added to the well, the cells were incubated at 37° C. for 4 hr, 100 μL of 20% SDS was added, and the cells were further incubated overnight.

[5] = system: EGFR del exon19/T790M gene-transfected PC-9 cell; test: proliferation inhibitory activity in EGFR (del exon19/T790M) gene-transfected PC-9 cell (MTT); format: cell-based; details: Homo sapiens, 96 h, PC-9 transfected with EGFR del exon19/T790M, 4 days
Method: (§1) The proliferation inhibitory activity of compound 26d in a lung adenocarcinoma cell line was examined. […] Two days later, 2 μg/mL puromycin was added and resistant cells were selected. These cells and A549 cells expressing wild-type EGFR were seeded in a 96 well microplate (Thermo Fisher Scientific, Inc.) respectively at 3,000 cells/well and 7,500 cells/well, various concentrations of the test compound were added, and the cells were cultured in 150 μL of the medium for 4 days. 15 μL of 5 mg/mL MTT (thiazolyl blue tetrazolium bromide) solution was added to the well, the cells were incubated at 37° C. for 4 hr, 100 μL of 20% SDS was added, and the cells were further incubated overnight.

[6] = system: EGFR L858R/T790M gene-transfected PC-9 cell; test: proliferation inhibitory activity in EGFR (L858R/T790M) gene-transfected PC-9 cell (MTT); format: cell-based; details: Homo sapiens, 96 h, PC-9 transfected with EGFR L858R/T790M, 4 days
Method: as §1

[7] = system: A549 cells expressing wild-type EGFR; test: proliferation inhibitory activity in EGFR wild-type A549 (MTT); format: cell-based
Method: as §1

[8] = system: PC-9 cells expressing EGFR (del exon19/T790M/C797S); test: antitumor effect in a mouse xenograft model; format: in vivo, Balb/c nude mouse; details: 0.2 mg intraperitoneally every day, nude mice
Method: The therapeutic effect of compound 26d at the animal level was examined using a mouse zenograft model. PC-9 cells expressing EGFR (del exon19/T790M/C797S) were prepared at 5×10^7 cells and mixed with Matrigel (Becton Dickinson Company, LTD.) at 1:1 ratio. These were subcutaneously injected by 100 μL into Balb/c nude mouse (CHARLES RIVER LABORATORIES JAPAN, INC.) After tumor formation was verified, compound 26d (0.2 mg) was intraperitoneally administered every day and the tumor diameters were measured. The tumor volume was calculated by the major axis (mm)×the minor axis (mm)^2/2.

[9] = system: EGFR signal (phosphorylation of EGFR, ERK, AKT) in PC-9 cells expressing EGFR (del exon19/T790M) or EGFR (del exon19/T790M/C797S); test: inhibition of EGFR signal by western blotting in PC-9 cells; details: 4 hr, FIG. 2
[10] = system: EGFR (del exon19/T790M/C797S) gene transfected BaF3 cell; test: proliferation inhibitory activity using EGFR (del exon19/T790M/C797S) gene transfected BaF3 cell (MTT); format: cell-based; details: Mus musculus, 96 h, +IL-3, 4 days

| Compound | IC50 [1] | IC50 [2] | IC50 [3] | IC50 [4] | IC50 [5] | IC50 [6] | selectivity, PC-9 with activating mutation compared to A549 wild-type EGFR [7] | body weight during the treatment period ([8]; FIG. 4) | tumor enlargement (tumor volume) ([8]; subcutaneous transplant, FIG. 3) | phosphorylation of AKT in the downstream of EGFR signal [9] | phosphorylation of EGFR [9] | phosphorylation of ERK in the downstream of EGFR signal [9] | IC50 [10] |
| --- | --- | --- | --- | --- | --- | --- | --- | --- | --- | --- | --- | --- | --- |
| COc1ccc(-c2c3c4cc(OC)c(OCCCN(C)C)cc4oc(=O)c3n3ccc4cc(O)c(OC)cc4c23)cc1O [compound 26a] | 4510 nM | 6560 nM | 4360 nM | – | – | – | – | – | – | – | – | – | – |
| COc1ccc(-c2c3c4cc(OCCCN(C)C)c(OCCCN(C)C)cc4oc(=O)c3n3ccc4cc(O)c(OC)cc4c23)cc1O [compound 26d] | 970 nM | 920 nM | 900 nM | 902 nM | 494 nM | 719 nM | selective for EGFR with an activating mutation | body weight loss was not observed | suppressed the tumor enlargement | not obvious | suppressed | suppressed | – |
| COc1ccc(-c2c3c4cc(OC)c(OCCCN(C)C)cc4[nH]c(=O)c3n3ccc4cc(O)c(OC)cc4c23)cc1O [compound 33] | 180 nM | – | 130 nM | – | – | – | – | – | – | – | – | – | 150 nM |

More lines, main results first:

| IC50 [1] | IC50 [2] | IC50 [3] | IC50 [4] | IC50 [5] | IC50 [6] | Compound | selectivity, PC-9 with activating mutation compared to A549 wild-type EGFR [7] | body weight during the treatment period ([8]; FIG. 4) | tumor enlargement (tumor volume) ([8]; subcutaneous transplant, FIG. 3) | phosphorylation of AKT in the downstream of EGFR signal [9] | phosphorylation of EGFR [9] | phosphorylation of ERK in the downstream of EGFR signal [9] | IC50 [10] |
| --- | --- | --- | --- | --- | --- | --- | --- | --- | --- | --- | --- | --- | --- |
| 3050 nM | 2170 nM | 1830 nM | – | – | – | COc1ccc(-c2c3c4cc(O)c(OCCCN(C)C)cc4oc(=O)c3n3ccc4cc(O)c(OC)cc4c23)cc1O [compound 26b] | – | – | – | – | – | – | – |
| 500 nM | 260 nM | 650 nM | – | – | – | COc1ccc(-c2c3c4cc(OCCN(C)C)c(OCCN(C)C)cc4oc(=O)c3n3ccc4cc(O)c(OC)cc4c23)cc1O [compound 26c] | – | – | – | – | – | – | – |
